Measured values from the supplement of paper PMC8728848.
Some of the results follow.

Key:
Test in all cases: glycan array binding signal (z-score within array); higher = stronger binding
Details in all cases: glycan notation: IUPAC condensed, linker removed
[1] = molecular target: Gal(b1-3)GlcNAc(b1-2)Man(a1-3)[Gal(b1-3)GlcNAc(b1-2)Man(a1-6)]Man(b1-4)GlcNAc(b1-4)[Fuc(a1-6)]GlcNAc
In short: (§1)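 Columns mapping to the same glycan were averaged after glycan names were converted to IUPAC-condensed notation. The data come from 3228 arrays in the Consortium for Functional Glycomics database, limited to those with an available protein sequence. Binding is reported as a within-array Z-score averaged across arrays of one protein sequence and across linkers.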

[2] = molecular target: Gal(b1-3)GlcNAc(b1-2)Man(a1-3)[GlcNAc(b1-4)][Gal(b1-3)GlcNAc(b1-2)Man(a1-6)]Man(b1-4)GlcNAc(b1-4)GlcNAc
In short: as §1

[3] = molecular target: Gal(b1-3)GlcNAc(b1-2)[Gal(b1-3)GlcNAc(b1-6)]Man(a1-6)[Gal(b1-3)GlcNAc(b1-2)Man(a1-3)]Man(b1-4)GlcNAc(b1-4)GlcNAc
In short: as §1

[4] = molecular target: Gal(b1-3)GlcNAc(b1-3)Gal(b1-3)GlcNAc
In short: as §1

[5] = molecular target: Gal(b1-3)GlcNAc(b1-3)Gal(b1-4)Glc
In short: as §1

[6] = molecular target: Gal(b1-3)GlcNAc(b1-3)Gal(b1-4)GlcNAc
In short: as §1

[7] = molecular target: Gal(b1-3)GlcNAc(b1-3)Gal(b1-4)GlcNAc(b1-2)Man(a1-3)[Gal(b1-3)GlcNAc(b1-3)Gal(b1-4)GlcNAc(b1-2)Man(a1-6)]Man(b1-4)GlcNAc(b1-4)GlcNAc
In short: as §1

[8] = molecular target: Gal(b1-3)GlcNAc(b1-3)Gal(b1-4)GlcNAc(b1-2)[Gal(b1-3)GlcNAc(b1-3)Gal(b1-4)GlcNAc(b1-6)]Man(a1-6)[Gal(b1-3)GlcNAc(b1-3)Gal(b1-4)GlcNAc(b1-2)Man(a1-3)]Man(b1-4)GlcNAc(b1-4)[Fuc(a1-6)]GlcNAc
In short: as §1

[9] = molecular target: Gal(b1-3)GlcNAc(b1-3)Gal(b1-4)GlcNAc(b1-3)Gal(b1-4)GlcNAc(b1-2)[Gal(b1-3)GlcNAc(b1-3)Gal(b1-4)GlcNAc(b1-3)Gal(b1-4)GlcNAc(b1-6)]Man(a1-6)[Gal(b1-3)GlcNAc(b1-3)Gal(b1-4)GlcNAc(b1-3)Gal(b1-4)GlcNAc(b1-2)Man(a1-3)]Man(b1-4)GlcNAc(b1-4)[Fuc(a1-6)]GlcNAc
In short: as §1

[10] = molecular target: Gal(b1-3)GlcNAc(b1-3)Gal(b1-4)GlcNAc(b1-6)[Gal(b1-3)GlcNAc(b1-3)]Gal(b1-4)Glc
In short: as §1

[11] = molecular target: Gal(b1-3)GlcNAc(b1-3)Gal(b1-4)[Fuc(a1-3)]GlcNAc
In short: as §1

[12] = molecular target: Gal(b1-3)GlcNAc(b1-3)Gal(b1-4)[Fuc(a1-3)]GlcNAc(b1-6)[Gal(b1-3)GlcNAc(b1-3)]Gal(b1-4)Glc
In short: as §1

[13] = molecular target: Gal(b1-3)GlcNAc(b1-3)GalNAc
In short: as §1

[14] = molecular target: Gal(b1-3)GlcNAc(b1-6)Gal(b1-4)GlcNAc
In short: as §1

[15] = molecular target: Gal(b1-3)GlcNAc(b1-6)GalNAc
In short: as §1

[16] = molecular target: Gal(b1-3)GlcNAc(b1-6)[Gal(b1-3)]GalNAc
In short: as §1

Gal(b1-3)GlcNAc6S = molecular target: Gal(b1-3)GlcNAc6S
In short: as §1

[17] = molecular target: Gal(b1-3)[Fuc(a1-4)]GlcNAc
In short: as §1

[18] = molecular target: Gal(b1-3)[Fuc(a1-4)]GlcNAc(b1-2)Man
In short: as §1

[19] = molecular target: Gal(b1-3)[Fuc(a1-4)]GlcNAc(b1-2)Man(a1-3)[Gal(b1-3)[Fuc(a1-4)]GlcNAc(b1-2)Man(a1-6)]Man(b1-4)GlcNAc(b1-4)[Fuc(a1-6)]GlcNAc
In short: as §1

[20] = molecular target: Gal(b1-3)[Fuc(a1-4)]GlcNAc(b1-3)Gal(b1-3)[Fuc(a1-4)]GlcNAc
In short: as §1

[21] = molecular target: Gal(b1-3)[Fuc(a1-4)]GlcNAc(b1-3)Gal(b1-4)[Fuc(a1-3)]GlcNAc
In short: as §1

[22] = molecular target: Gal(b1-3)[Fuc(a1-4)]GlcNAc(b1-6)GalNAc
In short: as §1

[23] = molecular target: Gal(b1-3)[GlcNAc(b1-6)]GalNAc
In short: as §1

[24] = molecular target: Gal(b1-3)[Neu5Ac(a2-6)]GalNAc
In short: as §1

[25] = molecular target: Gal(b1-3)[Neu5Ac(a2-6)]GlcNAc(b1-4)Gal(b1-4)Glc
In short: as §1

[26] = molecular target: Gal(b1-3)[Neu5Ac(b2-6)]GalNAc
In short: as §1

Gal(b1-4)Gal = molecular target: Gal(b1-4)Gal
In short: as §1

[27] = molecular target: Gal(b1-4)GalNAc(a1-3)[Fuc(a1-2)]Gal(b1-4)GlcNAc
In short: as §1

[28] = molecular target: Gal(b1-4)GalNAc(b1-3)[Fuc(a1-2)]Gal(b1-4)GlcNAc
In short: as §1

B1: Pa IMPa (Pseudomonas aeruginosa), Q9I5W4 (protein)
chain: MSLSTTAFPSLQGENMSRSPIPRHRALLAGFCLAGALSAQAATQEEILDAALVSGDSSQLTDSHLVALRLQQQVERIRQTRTQLLDGLYQNLSQAYDPGAASMWVLPANPDNTLPFLIGDKGRVLASLSLEAGGRGLAYGTNVLTQLSGTNAAHAPLLKRAVQWLVNGDPGAATAKDFKVSVVGVDKTAALNGLKSAGLQPADAACNALTDASCASTSKLLVLGNGASAASLSATVRARLQAGLPILFVHTNGWNQSSTGQQILAGLGLQEGPYGGNYWDKDRVPSSRTRTRSVELGGAYGQDPALVQQIVDGSWRTDYDWSKCTSYVGRTTCDDVPGLSDFSKRVDVLKGALDAYNQKAQNLFALPGTTSLRLWLLWADAVRQNIRYPMDKAADTARFQETFVADAIVGYVREAGAAQKELGSYAGQRQQSMPVSGSEETLTLTLPSAQGFTAIGRMAAPGKRLSIRIEDAGQASLAVGLNTQRIGSTRLWNTRQYDRPRFLKSPDIKLQANQSVALVSPYGGLLQLVYSGATPGQTVTVKVTGAASQPFLDIQPGEDSSQAIADFIQALDADKADWLEIRSGSVEVHAKVEKVRGSIDKDYGGDVQRFIRELNEVFIDDAYTLAGFAIPNQAKTPAIQQECAARGWDCDSETLHKLPGTQHINVDQYAQCGGGCSGNPYDQTWGLNPRGWGESHELGHNLQVNRLKVYGGRSGEISNQIFPLHKDWRVLREFGQNLDDTRVNYRNAYNLIVAGRAEADPLAGVYKRLWEDPGTYALNGERMAFYTQWVHYWADLKNDPLQGWDIWTLLYLHQRQVDKSDWDANKAALGYGTYAQRPGNSGDASSTDGNDNLLLGLSWLTQRDQRPTFALWGIRTSAAAQAQVAAYGFAEQPAFFYANNRTNEYSTVKLLDMSQGSPAWPFP
glycan array binding signal (z-score) [1]: -0.661 | glycan array binding signal (z-score) [2]: 0.31 | glycan array binding signal (z-score) [3]: -0.438 | glycan array binding signal (z-score) [4]: -0.434 | glycan array binding signal (z-score) [5]: 0.215 | glycan array binding signal (z-score) [6]: -0.303 | glycan array binding signal (z-score) [7]: 0.042 | glycan array binding signal (z-score) [8]: 0.004 | glycan array binding signal (z-score) [9]: -0.106 | glycan array binding signal (z-score) [10]: -0.063 | glycan array binding signal (z-score) [11]: -0.189 | glycan array binding signal (z-score) [12]: 0.072 | glycan array binding signal (z-score) [13]: -0.268 | glycan array binding signal (z-score) [14]: 0.734 | glycan array binding signal (z-score) [15]: -0.174 | glycan array binding signal (z-score) [16]: 0.031 | glycan array binding signal (z-score) (Gal(b1-3)GlcNAc6S): -0.334 | glycan array binding signal (z-score) [17]: -0.109 | glycan array binding signal (z-score) [18]: -0.48 | glycan array binding signal (z-score) [19]: 0.202 | glycan array binding signal (z-score) [20]: 0.216 | glycan array binding signal (z-score) [21]: -0.165 | glycan array binding signal (z-score) [22]: 0.744 | glycan array binding signal (z-score) [23]: -0.354 | glycan array binding signal (z-score) [24]: -0.295 | glycan array binding signal (z-score) [25]: 0.272 | glycan array binding signal (z-score) [26]: -0.582 | glycan array binding signal (z-score) (Gal(b1-4)Gal): 0.309 | glycan array binding signal (z-score) [27]: -0.544 | glycan array binding signal (z-score) [28]: 0.433
